About 14,000 (4.5%) of roughly 310,000 compounds showed an effect of 50% or more. The effect is printed as a negative number. This is one part of the list.
molecular target: human ether-à-go-go-related gene (hERG) potassium channel (human, UniProt Q12809); test: primary screen, population patch clamp on CHO cells stably expressing hERG
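Note: peak tail current of the secondary pulse compared with the same well before compound.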

Sequence of human ether-à-go-go-related gene (hERG) potassium channel (Q12809 whole entry, looked up): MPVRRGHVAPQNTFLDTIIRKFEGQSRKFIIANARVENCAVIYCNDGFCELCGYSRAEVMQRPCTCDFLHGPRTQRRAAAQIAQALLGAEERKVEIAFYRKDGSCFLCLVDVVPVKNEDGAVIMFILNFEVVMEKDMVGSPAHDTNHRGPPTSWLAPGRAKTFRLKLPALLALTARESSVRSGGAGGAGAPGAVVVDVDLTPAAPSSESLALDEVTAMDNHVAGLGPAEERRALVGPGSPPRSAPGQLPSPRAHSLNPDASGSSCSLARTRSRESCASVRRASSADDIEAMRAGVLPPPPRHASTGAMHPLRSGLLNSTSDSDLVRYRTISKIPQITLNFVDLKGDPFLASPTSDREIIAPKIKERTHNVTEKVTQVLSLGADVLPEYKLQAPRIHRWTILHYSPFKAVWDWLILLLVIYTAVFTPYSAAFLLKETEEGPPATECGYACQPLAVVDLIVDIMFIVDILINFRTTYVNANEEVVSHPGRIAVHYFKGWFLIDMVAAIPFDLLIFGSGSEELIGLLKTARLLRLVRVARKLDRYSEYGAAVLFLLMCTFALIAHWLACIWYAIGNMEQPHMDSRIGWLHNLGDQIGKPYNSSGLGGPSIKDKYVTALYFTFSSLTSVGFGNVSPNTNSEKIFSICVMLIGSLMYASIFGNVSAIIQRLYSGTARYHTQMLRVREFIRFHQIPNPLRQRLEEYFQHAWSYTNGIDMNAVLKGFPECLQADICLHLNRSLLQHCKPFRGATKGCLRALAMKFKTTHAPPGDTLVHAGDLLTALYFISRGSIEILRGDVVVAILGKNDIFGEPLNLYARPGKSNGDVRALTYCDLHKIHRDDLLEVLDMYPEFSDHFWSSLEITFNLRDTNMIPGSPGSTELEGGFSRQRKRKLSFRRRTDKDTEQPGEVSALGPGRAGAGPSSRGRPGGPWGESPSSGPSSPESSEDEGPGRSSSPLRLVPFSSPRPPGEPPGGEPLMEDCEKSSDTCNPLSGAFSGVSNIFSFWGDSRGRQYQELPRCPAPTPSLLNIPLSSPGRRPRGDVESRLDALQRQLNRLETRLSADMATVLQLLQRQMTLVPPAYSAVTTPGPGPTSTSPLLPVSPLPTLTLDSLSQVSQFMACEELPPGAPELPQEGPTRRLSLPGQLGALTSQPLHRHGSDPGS

| Structure (SMILES) | hERG current change (%, negative = inhibition) at 10uM [%] |
| --- | --- |
| O=C(CN1C(=O)C2(OCCCO2)c2ccccc21)NCc1ccccc1 | 1.57 |
| O=C(NCCO)C(=O)c1c(-c2ccccc2)cc2ccccn12 | -11.9 |
| Cc1ccc(N=c2oc3cc(O)ccc3cc2C(N)=O)cc1 | -15 |
| Nc1c(C(=O)c2cccs2)sc2nsc(SCCN3CCCCC3)c12 | 14.4 |
| COc1ccc(C2(O)CC3CCC(C2)N3c2nc(C)cc(C)c2C#N)cc1 (stereo not drawn) | -3.97 |
| Cc1cc(C)cc(NC(=O)CSc2nc3nc(C)cc(C)c3c(=O)[nH]2)c1 | 1.97 |
| CCCOc1ccc(C(=O)Nc2cc(S(=O)(=O)N3CCOCC3)ccc2N2CCOCC2)cc1 | -42.2 |
| CCC(=NCCCN1CCOCC1)c1c(O)n(-c2ccccc2C)c(=O)[nH]c1=O | 8.28 |
| CCCS(=O)(=O)c1c(S(=O)(=O)CCC)c2ccc(C(N)=O)cn2c1C(=O)c1ccccc1 | 12.3 |
| CNC(=O)c1[nH]cnc1C(=O)Nc1ccc(F)cc1 | 12 |
| Cc1nn(-c2ccccc2)c(C)c1NC(=O)Cc1cccs1 | -11.7 |
| COc1ccccc1-c1oc2ccccc2c1-c1ccc2cc[nH]c2c1 | 17.9 |
| CCCCN(C)C(=O)c1ccc2c(c1)S(=O)(=O)c1ccccc1C2=O | -24.4 |
| Cc1cccn2cc(-c3cccc(S(=O)(=O)N4CC(C)OC(C)C4)c3)nc12 (stereo not drawn) | -2.37 |
| O=C(CSc1ncn(-c2ccccc2)n1)N1CCN(c2ccccc2)CC1 | -11 |
| COc1cc(NC(=O)CN(C)Cc2cccc(F)c2)c(C)cc1[N+](=O)[O-] | 22.9 |
| O=C(CCn1c(=O)[nH]c2ccsc2c1=O)N1CCN(c2cccc(Cl)c2)CC1 | -52.3 |
| OCCC1CN(Cc2cn[nH]c2C2CCCCC2)CCN1C1CCCCC1 (stereo not drawn) | -8 |
| C[C@H]1C(=O)N(C)CCN1C(=O)c1cccc(OC2CCN(CC(C)(C)C)CC2)c1 | 23.3 |

| Structure (SMILES) | hERG current change (%, negative = inhibition) at 10uM [%] |
| --- | --- |
| CCOc1ccc(S(=O)(=O)N2CCCC(C(=O)NCc3ccccc3)C2)cc1 (stereo not drawn) | -2 |
| CC1Cc2ccccc2N1C(=O)CSc1nnc(CSc2ncccn2)n1C (stereo not drawn) | -24.1 |
| CN(C)c1ccc(C2(O)C(=O)c3ccccc3C2=O)cc1 | 23.4 |
| CN1C(=O)CCC1(O)c1ccccc1 (stereo not drawn) | -1.2 |
| CCOC(=O)c1ccc(NC(=O)CCS(=O)(=O)Cc2ccccc2)cc1 | -7.77 |
| CCn1nc(NC(=O)COC)c2cc3cccc(C)c3nc21 | 10.7 |
| CCCCn1nnnc1SCC(=O)NC1CCCCC1 | 17.8 |
| Cc1c(NC(=O)c2cccc(NC(=O)COc3ccccc3)c2)c(=O)n(-c2ccccc2)n1C | 9.67 |
| CC(C)(C)c1ccc(OCC(=O)NCCN2CCCC2)cc1.Cl | -33.7 |
| COc1ccc(NC(=O)CNC(=O)c2sc3ccccc3c2Cl)c(OC)c1 | 0.61 |
| COc1cc(C2Nc3ccc4ncccc4c3C3=C2C(=O)CCC3)ccc1O (stereo not drawn) | 13 |
| CC(C)(C)c1ccc(OCCC(=O)OCC(=O)NC2CCCCC2)cc1 | -31.8 |
| CC(=O)OCC1=C(C(=O)O)N2C(=O)C(NC(=O)Cn3nc(C(F)F)c(Cl)c3C)C2SC1 (stereo not drawn) | 31.1 |
| COc1cccc(C=N[C@@H](CO)[C@@H](O)c2ccc([N+](=O)[O-])cc2)c1O | 3.07 |
| COc1ccc(-n2c(=O)[nH]cc(C(=O)Nc3ccc4c(c3)OCCO4)c2=O)cc1OC | 6.18 |
| Cc1cc(C(=O)OCC(=O)N(C)C2CCS(=O)(=O)C2)c(C)n1-c1ccccc1 (stereo not drawn) | -15.2 |
| CNC(=O)COC(=O)c1cc(NC(=O)c2ccco2)c(OC)c(OC)c1 | 2.4 |
| S=c1[nH]nc(-c2ccccc2)n1/N=C/c1cccc(Br)c1 | 21.4 |
| CC(C)C(OC(=O)c1cccc(S(=O)(=O)NCC(F)(F)F)c1)C(=O)NC(N)=O (stereo not drawn) | 8.71 |

| Structure (SMILES) | hERG current change (%, negative = inhibition) at 10uM [%] |
| --- | --- |
| Cc1ccc(S(=O)(=O)CCc2nnc(NC(=O)C3CCCO3)s2)cc1 (stereo not drawn) | -4.14 |
| CC(C)N(CC#CCC(O)(c1ccccc1)C1CCCC1)CCO (stereo not drawn) | -20.3 |
| O=C(COC(=O)CN1C(=O)C2CCCCC2C1=O)NNC(=O)c1ccc(Cl)cc1 (stereo not drawn) | 15.8 |
| Cc1cccc(NC(=O)NCc2ccccn2)c1 | 2.73 |
| Cc1nonc1N1CCN(Cc2cn[nH]c2-c2ccc(F)cc2F)CC1 | -11.9 |
| Cc1ccccc1S(=O)(=O)N1CC(C(=O)O)=CC[C@H]1c1ccc(Cl)cc1 | 15.8 |
| Cc1ccccc1NC(=S)N(CCN(C)C)C(C)c1ccco1 (stereo not drawn) | -12.1 |
| Nc1ccc(S(=O)(=O)Nc2nc3ccccc3o2)cc1 | 15.9 |
| COc1ccc(N=NC2=C(O)CC(C)(C)CC2=O)cc1 | -9.39 |
| O=C(c1ccc([N+](=O)[O-])o1)N1CCc2ccccc2C1 | -23.1 |
| CC1=CCC(C(=O)O)(C(=O)N/N=C/c2cccs2)C(c2ccc(Cl)cc2)C1 (stereo not drawn) | -13.4 |
| CSc1nnc2c(n1)[nH]c1c(C)cccc12 | 2.43 |
| CN1C(=S)N2CCCN2C1c1ccccc1 (stereo not drawn) | 6.96 |
| COc1ccc(OCC(=O)OCC(=O)NC2CC2)cc1 | 7.47 |
| COc1ccc(NC(=O)c2ccc(NC(=O)c3ccncc3)cc2)cc1 | 27 |
| COc1ccccc1OCc1n[nH]c(=S)n1Cc1ccccc1 | 2.4 |
| COc1ccc(Br)cc1/C=C(\C(=O)O)c1ccc(S(=O)(=O)N2CCCCC2)s1 | 0.483 |
| CC(=O)Nc1cccc(C(=O)NC2CCCc3c2cnn3-c2ccc(C(C)(C)C)cc2)c1 (stereo not drawn) | 8.12 |
| Nc1ccc(NC(=O)c2cccs2)cc1 | 35 |

From publication PMC4336329 (PLoS ONE, 2015)
